# Data reported in the supplement of paper PMC8728848.
# This is one part of the list.
# Experiments:
# Experiment in all cases: glycan array binding signal (z-score within array); higher = stronger binding
# Conditions in all cases: glycan notation: IUPAC condensed, linker removed
# [1] = biological target: GalNAc(a1-3)GalNAc(b1-3)Gal(a1-4)Gal(b1-4)Glc
# Method in brief: (§1)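 Glycan array data were curated from 3228 arrays in the Consortium for Functional Glycomics database and kept only where the protein sequence was available. Glycan names were converted to IUPAC-condensed notation, and columns mapping to the same glycan were averaged. The binding signal is a within-array Z-score, averaged across arrays of the same protein sequence at different concentrations or buffers and across linkers. Negative Z-scores can be read as non-binding.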
# [2] = biological target: GalNAc(a1-3)GalNAc(b1-3)Gal(a1-4)Gal(b1-4)GlcNAc
# Method in brief: as §1
# [3] = biological target: GalNAc(b1-3)Gal
# Method in brief: as §1
# [4] = biological target: GalNAc(b1-3)Gal(a1-4)Gal(b1-4)GlcNAc
# Method in brief: as §1
# [5] = biological target: GalNAc(b1-3)Gal(a1-4)Gal(b1-4)GlcNAc(b1-3)Gal(b1-4)Glc
# Method in brief: as §1
# [6] = biological target: GalNAc(b1-3)Gal(a1-6)Gal(b1-4)Glc
# Method in brief: as §1
# [7] = biological target: GalNAc(b1-3)GalNAc
# Method in brief: as §1
# [8] = biological target: GalNAc(b1-3)GlcNAc
# Method in brief: as §1
# [9] = biological target: GalNAc(b1-4)Gal(b1-4)Glc
# Method in brief: as §1
# [10] = biological target: GalNAc(b1-4)GlcNAc
# Method in brief: as §1
# [11] = biological target: GalNAc(b1-4)GlcNAc(b1-2)Man
# Method in brief: as §1
# [12] = biological target: GalNAc(b1-4)GlcNAc(b1-2)Man(a1-3)[GalNAc(b1-4)GlcNAc(b1-2)Man(a1-6)]Man(b1-4)GlcNAc(b1-4)GlcNAc
# Method in brief: as §1
# [13] = biological target: GalNAc(b1-4)GlcNAc(b1-3)GalNAc(b1-4)GlcNAc
# Method in brief: as §1
# [14] = biological target: GalNAc(b1-4)GlcNAc6S
# Method in brief: as §1
# [15] = biological target: GalNAc(b1-6)GalNAc
# Method in brief: as §1
# [16] = biological target: GalNAc3S(b1-4)GlcNAc
# Method in brief: as §1
# [17] = biological target: GalNAc3S(b1-4)GlcNAc3S
# Method in brief: as §1
# [18] = biological target: GalNAc3S(b1-4)[Fuc(a1-3)]GlcNAc
# Method in brief: as §1
# [19] = biological target: GalNAc4S6S(b1-4)GlcNAc
# Method in brief: as §1
# [20] = biological target: GalNAc6S(b1-4)GlcNAc
# Method in brief: as §1
# [21] = biological target: Glc(a1-4)Glc
# Method in brief: as §1
# [22] = biological target: Glc(a1-4)Glc(a1-4)Glc(a1-4)Glc
# Method in brief: as §1
# [23] = biological target: Glc(a1-6)Glc(a1-6)Glc
# Method in brief: as §1
# [24] = biological target: Glc(a1-6)Glc(a1-6)Glc(a1-6)Glc
# Method in brief: as §1
# [25] = biological target: Glc(b1-4)Glc
# Method in brief: as §1
# [26] = biological target: Glc(b1-6)Glc
# Method in brief: as §1
# [27] = biological target: GlcA(b1-3)Gal
# Method in brief: as §1
# [28] = biological target: GlcA(b1-3)GlcNAc
# Method in brief: as §1
# [29] = biological target: GlcA(b1-6)Gal
# Method in brief: as §1
# [30] = biological target: GlcA3S(b1-3)Gal(b1-4)GlcNAc(b1-2)Man
# Method in brief: as §1
# [31] = biological target: GlcA3S(b1-3)Gal(b1-4)GlcNAc(b1-3)Gal(b1-4)Glc
# Method in brief: as §1
# [32] = biological target: GlcNAc(a1-3)Gal(b1-4)GlcNAc
# Method in brief: as §1
# [33] = biological target: GlcNAc(a1-4)Gal(b1-3)GlcNAc
# Method in brief: as §1
# [34] = biological target: GlcNAc(a1-4)Gal(b1-4)GalNAc
# Method in brief: as §1
# [35] = biological target: GlcNAc(a1-4)Gal(b1-4)GlcNAc
# Method in brief: as §1
# [36] = biological target: GlcNAc(a1-4)Gal(b1-4)GlcNAc(b1-3)Gal(b1-4)Glc
# Method in brief: as §1
# [37] = biological target: GlcNAc(a1-4)Gal(b1-4)GlcNAc(b1-3)Gal(b1-4)GlcNAc
# Method in brief: as §1
binder,measurement,setting,value
GSL-I (Griffonia simplicifolia) (protein) FNLPNFWSDVKDNIIFQGDANTTAGTLQLCKTNQYGNPLQYRAGRALYSDPVQLWDNKTGSVASFYTEFTFFLKITGDGPADGLAFFLAPPDSDVKDAGAYLGLFNKSTATQPSKNQVVAVEFDTWKNTDFPEPSYRHIGINVNSIVSVATKRWEDSDIFSGKIATARISYDGSAKILTVVLSYPDGADYILSHSVDLSKNLPNPIRVGISASTGANQFLTVYVLSWRFSSALQSTSVNAAMGPEIIRTVV,glycan array binding signal (z-score),[1],1.18
same,glycan array binding signal (z-score),[2],-0.493
same,glycan array binding signal (z-score),[3],-0.13
same,glycan array binding signal (z-score),[4],-0.22
same,glycan array binding signal (z-score),[5],-0.176
same,glycan array binding signal (z-score),[6],-0.191
same,glycan array binding signal (z-score),[7],-0.272
same,glycan array binding signal (z-score),[8],-0.26
same,glycan array binding signal (z-score),[9],0.342
same,glycan array binding signal (z-score),[10],-0.089
same,glycan array binding signal (z-score),[11],-0.143
same,glycan array binding signal (z-score),[12],0.254
same,glycan array binding signal (z-score),[13],-0.174
same,glycan array binding signal (z-score),[14],-0.287
same,glycan array binding signal (z-score),[15],-0.335
same,glycan array binding signal (z-score),[16],-0.299
same,glycan array binding signal (z-score),[17],-0.244
same,glycan array binding signal (z-score),[18],-0.214
same,glycan array binding signal (z-score),[19],-0.288
same,glycan array binding signal (z-score),[20],-0.236
same,glycan array binding signal (z-score),[21],-0.173
same,glycan array binding signal (z-score),[22],-0.189
same,glycan array binding signal (z-score),[23],-0.113
same,glycan array binding signal (z-score),[24],-0.154
same,glycan array binding signal (z-score),[25],-0.154
same,glycan array binding signal (z-score),[26],-0.221
same,glycan array binding signal (z-score),[27],-0.068
same,glycan array binding signal (z-score),[28],-0.171
same,glycan array binding signal (z-score),[29],-0.096
same,glycan array binding signal (z-score),[30],-0.27
same,glycan array binding signal (z-score),[31],-0.231
same,glycan array binding signal (z-score),[32],-0.199
same,glycan array binding signal (z-score),[33],-0.209
same,glycan array binding signal (z-score),[34],-0.188
same,glycan array binding signal (z-score),[35],0.112
same,glycan array binding signal (z-score),[36],-0.13
same,glycan array binding signal (z-score),[37],-0.145
